Experimental data taken from PubChem BioAssay AID463173 (ICCB-Longwood Screening Facility, Harvard Medical School, 2010).
The campaign covered roughly 52,000 compounds. About 1,700 (3.3%) were called active. Rule as the data show it: active = survival mostly below about 52% (no sharp cut-off); inactive = mostly above about 56%. Some of the results follow.

What follows are compounds tested on Wild type (assay: S. aureus survival, RN4220 and DeltatarO strains – OD600, teichoic acid synthesis inhibitors, primary screen (AID 463173)). Details: S. aureus RN4220 wild type/DeltatarO growth, OD600, 18 h, active compounds read low, screened at 18.75 µg/mL (by protocol).

Structure (SMILES) | survival
CC(=O)NC1=NN(C(C)=O)C(C)(CS(=O)(=O)c2ccc(C)c(C)c2)S1 (centres undefined) | inactive: 112%
O=S(N1CCCCC1)C12CC3CC(CC(C3)C1)C2 (centres undefined) | inactive: 123%
Cc1cc(C)cc(N2C(=O)CS(=O)(=O)C23C(=O)N(Cc2ccccc2)c2ccccc23)c1 (centres undefined) | inactive: 85%
CCc1cc(=O)[nH]c(SCc2nc(-c3ccccc3C)no2)n1 | inactive: 91%
N#Cc1nc(COc2ccc(Cl)cc2)oc1NCc1ccco1 | inactive: 109%
CCOC(=O)C1CCN(c2ncnc3c2c(-c2ccccc2)cn3-c2ccc(C)c(Cl)c2)CC1 | inactive: 68%
COc1nnc(-c2ccc(N3CCCCC3)c(NC(=O)c3ccc(Cl)cc3)c2)c2ccccc12 | inactive: 96%
COc1ccc(-c2cc(C(F)(F)F)nc(SCC(=O)Nc3ccc(C(C)=O)cc3)n2)cc1 | inactive: 60%
O=C(NCCc1csc(-c2ccc(F)cc2)n1)C(=O)Nc1ccc(Cl)cc1 | inactive: 70%
O=C1NC(=O)C(c2ccccc2)(c2ccccc2)N1 | inactive: 86%
COc1ccc(OC)c(NC(=O)c2nc(SCc3ccc(F)cc3)ncc2Cl)c1 | inactive: 100%
O=C(/C=C1\NC2(CCCC2)Cc2ccccc21)N1CCOCC1 | inactive: 111%
CCC(=O)N1c2ccc(S(=O)(=O)NCCc3ccccc3)cc2CC1C (centres undefined) | inactive: 72%
O=C(/C=C/c1cn(CC(O)CN2CCc3ccccc32)c2ccccc12)c1ccc(Br)cc1 (centres undefined) | inactive: 70%
COC(=O)c1ccccc1NC(=O)N(Cc1ccc(C)cc1)Cc1cccn1-c1nnc(N2CCCC2=O)s1 | inactive: 123%
Cc1ccc(CNS(=O)(=O)c2c(C(=O)N3CCC(C)CC3)c(C)n(C)c2C)cc1 | inactive: 76%
COc1ccc(C)cc1NC(=O)C1CCN(S(=O)(=O)c2cccc3nonc23)CC1 | inactive: 96%
CCOC(=O)c1[nH]c(C)c(CCC(=O)NCc2ccc(OC(C)C)cc2)c1C | inactive: 89%
Cc1sc2ncn(CC(=O)Nc3ccc(C(F)(F)F)cc3)c(=O)c2c1S(=O)(=O)N1CCN(C)CC1 | inactive: 126%
Cc1cc(Nc2cccc(O)c2)c2cccc(Br)c2n1 | inactive: 73%
CC1=NN(C(=O)c2ccccc2Cl)C(O)(C2CCCCC2)C1 (centres undefined) | inactive: 108%
CCc1ccc(S(=O)(=O)c2cn(CC(=O)Nc3cccc(C)c3)c3ccc(Cl)cc3c2=O)cc1 | inactive: 71%
Cc1nnc(SCC(=O)N(c2ccccc2)c2ccccc2)nc1C | inactive: 103%

Structure (SMILES) | survival
Cc1cccc(NC(=O)CSc2nnc3c4ccccc4n(C)c3n2)c1 | inactive: 87%
COC(=O)c1ccccc1NC(=O)c1sc2nc(C)cc(C)c2c1NC(=O)c1ccccc1Cl | inactive: 70%
COc1ccc(NC(=O)CN2CCC(N3CCCCC3)CC2)c(OC)c1 | inactive: 98%
Cc1cc(/C=C(\C#N)C(=O)Nc2ccccc2)c(C)n1-c1ccc(F)cc1 | inactive: 83%
COc1ccc2c(CNCc3cccs3)c(C(=O)O)n(Cc3cccc(F)c3)c2c1 | inactive: 71%
COc1ccc(NC(=O)c2cc(C(C)=O)n3ccccc23)cc1Cl | inactive: 87%
CCOC(=O)c1cccc(NC(=O)C2CCN(S(=O)(=O)c3c(C)noc3/C=C/c3ccc(C)cc3)CC2)c1 | inactive: 88%
CC(CNC(=O)c1ccc2nc(CCc3ccccc3)oc2c1)c1ccccc1 (centres undefined) | inactive: 82%
COc1ccc(NC(=O)c2ncoc2-c2ccco2)cc1Cl | inactive: 117%
COc1ccc(CNC(=O)c2cc(C3CC3)nc3c2c(C)nn3-c2cccc(Cl)c2C)cc1 | inactive: 73%
Cc1cccc(C(=O)Nc2ccc3nc(SCC(=O)N4CCc5ccccc54)sc3c2)c1 | inactive: 111%
COc1ccc(OC)c(-c2nnc3n(CCc4ccccc4)c(=O)c4ccccc4n23)c1 | inactive: 84%
COc1ccc(CNC(=O)Cn2ccc3cc(S(=O)(=O)N4CCCC4)ccc32)c(OC)c1 | inactive: 75%
CCn1c(=O)n(-c2ccc3c(c2)OCO3)c2nc(-c3cc(OC)ccc3OC)nc(C(N)=O)c21 | inactive: 89%
COc1cc(NC(=O)c2nc(-c3ccc(Cl)cc3)n3c2CCCCC3)cc(OC)c1OC | inactive: 84%
O=C(Cc1ccccc1)Nc1sc2c(c1C(=O)Nc1ccccc1Cl)CCCC2 | inactive: 42%
Cc1ccccc1C(=O)Nc1cccc(C(=O)OCc2cc(=O)n3c(C)csc3n2)c1 | inactive: 76%
S=c1n(-c2ccccc2)cnn1CN1CCCCC1 | inactive: 96%
COc1ccc(CNC(=O)c2ccc(NC(=O)N3CCSc4ncccc43)cc2)c(OC)c1 | inactive: 55%
CC(=O)N1CCCn2c1nc1ccccc12 | inactive: 109%
Cc1cnc(C(=O)Nc2ccc(N3CCN(C(=O)OC(C)(C)C)CC3)cc2)cn1 | inactive: 107%
CCOc1ccc2oc(=O)cc(CN3CCN(C(=O)c4cccc(Cl)c4)CC3)c2c1 | inactive: 76%
Cc1ccc(C)c(Nc2nn3c(=O)c4ccc(C(=O)N(C)Cc5ccccc5)cc4nc3s2)c1 | inactive: 152%

Structure (SMILES) | survival
COC(=O)C1CC2(C(=O)O)CC(C(=O)O)(CC(C(=O)OC)C2=O)C1=O (centres undefined) | inactive: 93%
CCN(CC)C(=O)Cn1c(=O)n(CCCCCC(=O)Nc2ccccc2)c(=O)c2sccc21 | inactive: 89%
COC(=O)c1ccccc1NC(=O)Cn1c(=O)cc(-c2ccccc2)c2c(C)nn(C)c21 | inactive: 68%
CCOC(=O)c1sc2ncn(CC(=O)Nc3cc(C)cc(C)c3)c(=O)c2c1C | inactive: 90%
CCc1ccc(N2CC(C(=O)O)CC2=O)cc1 (centres undefined) | inactive: 90%
O=C(NCc1ccccc1F)c1cc2ccccn2n1 | inactive: 83%
COc1cccc(C(c2nnnn2CCC(C)C)N2CCN(c3cccc(C)c3C)CC2)c1OC (centres undefined) | inactive: 101%
CCCCCCCc1nnc(NC(=O)c2cccs2)s1 | inactive: 104%
Cc1ccc(CN2CCc3nc(N4CCN(c5ccccc5F)CC4)ncc3C2)s1 | inactive: 123%
C=CCN1C(=O)C2(NC(=O)c3ccccc3N2)c2ccccc21 (centres undefined) | inactive: 103%
COC(=O)CNC(=O)C1CCN(c2nc(C)cc(-c3ccccc3)n2)CC1 | inactive: 106%
Cc1ccc(NC(=O)C2CCCN2S(=O)(=O)c2cccc3nsnc23)c(Br)c1 (centres undefined) | inactive: 89%
Cc1ccc2oc(=O)c3cc(C(=O)NCc4ccc(Cl)cc4)sc3c2c1 | inactive: 92%
Cc1cccc(-c2nc(C)c(CCNC(=O)C(=O)Nc3c(C)cc(C)cc3C)s2)c1 | inactive: 71%
Cc1cc(SCC(=O)NCc2ccccc2Cl)nc(=O)[nH]1 | inactive: 72%
COc1ccc(CNC(=O)c2ccc(NC(=O)N3CCCCc4ccccc43)cc2)c(OC)c1 | inactive: 63%
Cc1ccc(-c2noc(CSc3nnc(C)n3-c3ccc(F)cc3)n2)cc1 | inactive: 92%
Cc1cccc(C)c1NC(=O)CCS(=O)(=O)c1ccc2c(c1)n(C)c(=O)c(=O)n2C | inactive: 80%
COc1ccc(-c2csc3nc(-c4ccc(F)cc4)oc(=O)c23)cc1OC | inactive: 73%
CCC(=O)N1CCc2cc(Br)cc(S(=O)(=O)CCC(=O)NCc3ccc(C)cc3)c21 | inactive: 79%
Cc1cc(O)c(C(c2ccccc2)N2CCN(c3ccccc3F)CC2)c(=O)n1Cc1ccco1 (centres undefined) | inactive: 77%
COC(=O)c1sc(S(=O)(=O)N2CCN(c3ccc(OC)cc3)CC2)c(C(=O)OC)c1C | inactive: 127%
CCN(CC)S(=O)(=O)c1ccc(S(=O)(=O)N2CCN(C)CC2)cc1 | inactive: 113%

Structure (SMILES) | survival
COc1ccc(CNC(=O)C(=O)Nc2ccccc2OC)cc1 | inactive: 80%
C=CCNC(=O)CN1CCN(c2ccccc2)CC1 | inactive: 108%
CC1CC(C)CN(S(=O)(=O)c2ccccc2)C1 (centres undefined) | inactive: 104%
COc1ccc(OC)c(NC(=O)CSc2nccn2-c2cc(C)cc(C)c2)c1 | inactive: 84%
O=C(C1CC1)n1cc(C(=S)N2CCOCC2)c2ccccc21 | inactive: 100%
Cc1ccc(-c2nc3ccccc3[nH]2)cc1NC(=O)COc1ccc(Cl)cc1Cl | inactive: 45%
COc1cc(NC(=O)CN2C(=O)C(c3ccc(C)cc3)=NC23CCCCCC3)cc(OC)c1 | inactive: 83%
CC(=O)Nc1c(C)nn(-c2ccccc2)c1N1CCC(C(=O)Nc2ccc(Cl)cc2C)CC1 | inactive: 129%
CCCC(=O)Nc1nc2c(s1)CC(C(C)(C)C)CC2 (centres undefined) | inactive: 66%
COc1ccc(-n2c(=O)c3ccc(C(=O)NCc4ccc(C)cc4)cc3n(Cc3ccc(F)cc3Cl)c2=O)cc1 | inactive: 83%
CC1(C)N=C(c2ccc(F)cc2)C(=O)N1CC(=O)Nc1ccccc1Cl | inactive: 92%
COc1ccc(N2CCN(C(=O)CCc3nnc4n(C)c(=O)c5sccc5n34)CC2)cc1 | inactive: 64%
Cc1ccc(CN2C(=O)CC(c3ccc(Cl)cc3)c3c(C)nn(-c4nc(C)cc(C)n4)c32)cc1 (centres undefined) | inactive: 73%
COc1ccc(-n2nc3c(c2NC(=O)C(=O)NCc2ccccc2)CSC3)cc1 | inactive: 69%
Cc1ccc(Cn2c3ccccc3c3cnn(CC(=O)N4CCCCCC4)c(=O)c32)cc1 | inactive: 22%
COC(=O)c1ccc(NC(=O)CSc2nccn2Cc2ccc(Cl)cc2)cc1 | inactive: 71%
COC(=O)c1cc2oc(C)cc2n1CC(=O)Nc1ccc(OC)c(OC)c1 | inactive: 123%
CCOc1ccc(-n2c(=O)c3c(C)c(C)sc3n(Cc3c(F)cccc3Cl)c2=O)cc1 | inactive: 93%
CCN1CCN(c2cc(C)c3cc(NC(=O)c4cc(OC)c(OC)c(OC)c4)ccc3n2)CC1 | inactive: 73%
Clc1cccc(N2CCN(c3nc4ccccc4c4nc(-c5ccccc5)nn34)CC2)c1 | inactive: 86%
